For series [1], the target named is neuraminidase (NA) of influenza virus (H1N1) (Influenza A virus, UniProt P03468). Put plainly: Neuraminidase (NA) inhibitory activity, fluorogenic substrate 4-MUNANA (Example I).
Series [2] has as its system Influenza virus A/PR/8/34 (H1N1).

In brackets after ≈: the same amount, converted by molar mass.

Results on 2 compounds are retold here after patent publication US20130296417A1, “Theaflavin Compositions, Production, and Method to Control Physiological Disorders in Mammals” (JANGSU DEHE BIO-TECH CO., LTD., priority 2010, published 2013).

Usually IC50 stands for the concentration that gives 50% inhibition. Read a low IC50 as greater potency in that assay. One may read the inhibition as the share of the control response that was lost under treatment.

UniProt P03468, sequence (P03468 whole entry): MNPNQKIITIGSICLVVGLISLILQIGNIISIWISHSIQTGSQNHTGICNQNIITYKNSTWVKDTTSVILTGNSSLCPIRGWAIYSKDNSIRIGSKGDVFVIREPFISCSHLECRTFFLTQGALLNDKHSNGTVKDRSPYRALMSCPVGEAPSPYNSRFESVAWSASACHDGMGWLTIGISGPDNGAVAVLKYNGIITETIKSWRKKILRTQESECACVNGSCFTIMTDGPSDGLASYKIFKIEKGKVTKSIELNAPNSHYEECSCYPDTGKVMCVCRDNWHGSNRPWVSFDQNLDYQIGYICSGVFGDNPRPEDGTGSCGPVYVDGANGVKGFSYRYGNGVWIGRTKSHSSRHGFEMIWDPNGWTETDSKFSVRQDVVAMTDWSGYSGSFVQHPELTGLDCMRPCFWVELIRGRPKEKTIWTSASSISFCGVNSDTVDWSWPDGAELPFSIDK

Take `O=C(O[C@@H]1Cc2c(O)cc(O)cc2O[C@@H]1c1cc(O)c(O)c(O)c1)c1cc(O)c(O)c(O)c1` [EGCG, (−)-epigallocatechin-3-gallate]: the “IC50” value turned out to be 35.95 µg/mL (≈ 78.4 µM) in series [1] and 42.05 µg/mL (≈ 91.7 µM) in series [2] (CPE, MDCK, H1N1 cellular level). Besides, in series [1] (40 μg/ml), the “Inhibition Rate (%)” value was 54.96%. In addition, the “Inhibitory Rate (%)” value in series [2] (50 μg/ml, CPE, MDCK, H1N1) was found to be 56.85%. This compound also showed a CC50/IC50 in series [2] (Therapeutic Index (TI)) of more than 2.38.

`CCOC(=O)C1=C[C@@H](OC(CC)CC)[C@H](NC(C)=O)[C@@H](N)C1` [Oseltamivir]: in series [1] (0.4 μg/ml, read-out: Inhibition Rate (%)), the inhibition at 0.4 µg/mL turned out to be 93.1%.
